Experimental data reported in PubChem BioAssay AID1851 (National Center for Advancing Translational Sciences (NCATS), 2009).
This list holds what a sample rich in hits left over. Results filed as inconclusive are left out. Activity calls are given as the source filed them. Calls come from the whole dose curve; as a rule, active = well fitted curve in the direction sought with a large enough effect; inconclusive = small, poorly fitted or top-dose-only effect, or effect the other way; inactive = no such curve, though single readings can be large or run the other way.

Molecular target: Cytochrome P450 3A4 (Homo sapiens) (UniProt P08684)
UniProt P08684, sequence (P08684 whole entry, looked up): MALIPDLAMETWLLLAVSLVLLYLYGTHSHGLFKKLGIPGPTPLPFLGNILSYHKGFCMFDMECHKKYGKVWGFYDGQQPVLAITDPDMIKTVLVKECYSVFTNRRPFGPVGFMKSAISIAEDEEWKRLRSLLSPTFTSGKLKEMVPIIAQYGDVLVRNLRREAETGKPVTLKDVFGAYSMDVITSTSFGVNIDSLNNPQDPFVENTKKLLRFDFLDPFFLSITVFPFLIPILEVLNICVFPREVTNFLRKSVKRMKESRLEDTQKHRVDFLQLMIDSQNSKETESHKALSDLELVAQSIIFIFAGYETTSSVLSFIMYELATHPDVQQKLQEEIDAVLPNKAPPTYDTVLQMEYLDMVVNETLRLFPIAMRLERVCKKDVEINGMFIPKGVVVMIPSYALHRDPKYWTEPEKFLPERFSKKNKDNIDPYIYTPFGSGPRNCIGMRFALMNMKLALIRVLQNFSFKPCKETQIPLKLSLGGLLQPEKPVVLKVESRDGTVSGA
Experiment: Cytochrome panel assay with activity outcomes
Details: recombinant CYP, pro-luciferin dealkylation, luminescence, p450-cyp3a4

Measured: activity, negative = inhibition
% is set by controls: 0 for no effect and ±100 for the full control effect.

CN1[C@@H]2CC[C@H]1CC(OC(=O)[C@@H](O)c1ccccc1)C2 (stereo partly drawn)
inactive: at 11.4 µM (top of the series) -8.01% | at 25.6 µM (top of the series) -7.14% | at 57.1 µM (top of the series) 1.4%
